Data reported in PubChem BioAssay AID894 (National Center for Advancing Translational Sciences (NCATS), 2007).
Values joined by “and” are separate entries in the source; they are usually repeats but may differ in a detail not shown here. Equal values may be shown once. About 6,500 (4.3%) of roughly 150,000 compounds were called active. The shares of active, inactive and inconclusive entries below differ from those in the screen. Calls follow the shape of the dose curve; as a rule, active = well fitted inhibition curve with a large enough effect (not every such curve was filed as active); inconclusive = small, poorly fitted or top-dose-only effect, or another doubt; inactive = no such curve, though single readings can be large or run the other way. Potencies of inconclusive entries are left out as doubtful fits.

These compounds were tested against 15-hydroxyprostaglandin dehydrogenase [NAD(+)] (Homo sapiens) (UniProt P15428) (assay: qHTS Assay for Inhibitors of HPGD (15-Hydroxyprostaglandin Dehydrogenase)). Conditions: purified HPGD, NADH fluorescence kinetic, PGE2 substrate; activity change, negative = inhibition: stronger effect = lower value.
Summary of the method: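 NADH formation kinetics: reaction with 30 uM PGE2 and 1 mM NAD+ (final), 20 nM enzyme, Tris-HCl pH 8 with Tween 20, after 15 min compound preincubation at room temperature. Fluorescence change, last versus first of five reads.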
% is scaled to controls: 0 for no effect and ±100 for the full control effect; potency is read from the fitted curve at half-maximal effect; tags tell the direction and shape of the fitted curve.

UniProt P15428, sequence (P15428 whole entry, looked up): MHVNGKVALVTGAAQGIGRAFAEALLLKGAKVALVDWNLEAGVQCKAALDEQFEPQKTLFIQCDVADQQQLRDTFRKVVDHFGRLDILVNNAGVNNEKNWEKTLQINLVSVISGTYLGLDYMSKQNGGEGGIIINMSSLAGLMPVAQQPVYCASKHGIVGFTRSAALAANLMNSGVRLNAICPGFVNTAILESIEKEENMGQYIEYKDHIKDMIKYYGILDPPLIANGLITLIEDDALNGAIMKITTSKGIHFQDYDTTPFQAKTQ

Compound	Potency	activity change, negative = inhibition
CCc1ccc(C(=O)NCc2cccs2)s1	active: 17.8 µM	
CC1(C)CC(=O)C=C(Nc2ccccc2F)C1	active: 22.4 µM	
Cc1c(N=Cc2cccs2)c(=O)n(-c2ccccc2)n1C	inconclusive [inhibitor, partial curve]	
O=S(=O)(Nc1ccc(N=Nc2ccc(O)c3ccccc23)cc1)c1ccccc1	active: 31.6 µM	
Cc1cccc2cc(COC(=O)COc3ccccc3)c(=O)[nH]c12	inconclusive [inhibitor, partial curve]	
COCCNC(=O)c1cc(-c2ccccc2OC)on1	inconclusive [inhibitor, partial curve]	
C/C(Cc1ccccc1)=N\NC(=O)C1CCCCC1		inactive: -4.31%
Cc1c(NC(=S)N/N=C\c2ccccc2O)c(=O)n(-c2ccccc2)n1C	inconclusive [inhibitor, partial curve]	
O=C(NNC(=O)c1cc(O)c(O)c(O)c1)NC1CCCCC1	inconclusive [inhibitor, partial curve, poor fit]	
C=Cc1c(C)c2cc3[nH]c(cc4nc(cc5nc(cc1[nH]2)C(C)=C5CCC(=O)O)C(CCC(=O)O)=C4C)c(C)c3C=C		inactive: -15.3%
Cc1ccc(CC(=O)N2CC(C)OC(C)C2)cc1 (stereo unspecified)	inconclusive [inhibitor, single point]	
CN(C)S(=O)(=O)c1ccc(NC(=O)c2c(F)cccc2Cl)cc1		inactive: -14.4%
N#CC1=C(N)N(c2ccccc2)C(c2cccc([N+](=O)[O-])c2)C1(C#N)C#N (stereo unspecified)	inconclusive [inhibitor, single point]	
Cc1ccc(NC(=O)CC2S/C(=N/N=C/c3c[nH]c4ccccc34)NC2=O)cc1 (stereo unspecified)	inconclusive [inhibitor, single point]	
Cc1c(O)ccc(-c2[nH]ncc2-c2nc3ccccc3s2)c1O	inconclusive [inhibitor, partial curve]	
Cc1ccc(N=Cc2cc(Cl)cc(Cl)c2O)nc1	inconclusive [inhibitor, partial curve]	
COc1ccc(-c2c(C#N)c(N)nc3c2CCCCCC3)cc1OC	inconclusive [inhibitor, partial curve]	
CC(=O)c1ccc(N2CCN(C(=O)COc3ccc(F)cc3)CC2)c(F)c1		inactive: -10.7%
O=C1CCCc2c1cc(C(=O)NC1CCSC1=O)c(=O)n2-c1ccccc1 (stereo unspecified)	inconclusive [inhibitor, partial curve]	
CC(=O)Nc1cc(C(=O)NCc2ccco2)ccc1Sc1ccc(Cl)cc1		inactive: -9.59%
CCC(=O)Oc1ccc2c(C)cc(=O)oc2c1C	inconclusive [inhibitor, single point]	
Cc1onc(-c2ccccc2Cl)c1C(=O)Nc1sc2c(c1C#N)CCC2	inconclusive [inhibitor, partial curve]	
CC(=O)N1CC[n+]2c(-c3ccc(Cl)cc3Cl)csc21	inconclusive [inhibitor, single point]	
COc1cccc(S(=O)(=O)NCc2ccc(C(=O)NCC3CCCO3)cc2)c1 (stereo unspecified)	active: 15.8 µM	

Compound	Potency	activity change, negative = inhibition
Cc1ccc(CNC(=O)c2ccccc2NS(C)(=O)=O)cc1	inconclusive [inhibitor, single point]	
CCCCN(CC)Cc1ccc(CNC(=O)Nc2ccccc2)o1		inactive: -8.03%
O=C(CSc1nc2ccccc2s1)CSc1nc2ccccc2s1		inactive: -14.1%
Cc1cc(C(=O)N2CCCCCC2)cs1	active: 0.447 µM	
COc1ccc(-c2cc(C(F)(F)F)nc(SCC(=O)Nc3cc(C)on3)n2)cc1	inconclusive [inhibitor, partial curve]	
COC(=O)c1[nH]c2cc(OC)c(OC)cc2c1NC(=O)Oc1ccccc1	inconclusive [inhibitor, partial curve]	
CC(=O)C1=C(O)C=C(c2ccco2)CC1c1ccco1 (stereo unspecified)	inconclusive [inhibitor, partial curve]	
Cc1[nH]c2ccccc2c1/C=C(\C#N)S(=O)(=O)c1ccccc1	inconclusive [inhibitor, single point]	
Nc1ccccc1C(=O)NCc1ccccc1	inconclusive [inhibitor, partial curve]	
COc1ccc(/C=N/OCC(=O)Nc2nc3ccccc3s2)cc1		inactive: -18.3%
COc1ccc2[nH]c(=O)c(CN(C(=O)c3ccccn3)c3ccccc3)cc2c1	inconclusive [inhibitor, partial curve]	
CCCCSc1nc(C)cc(SCC(=O)N/N=C/c2cccc(OC)c2O)n1		inactive: -12%
CCOc1cc(/C=C2/C(=O)N(c3ccccc3)N=C2C)ccc1OC(=O)c1cccs1	active: 20 µM	
Cc1ccc(NC(=O)CSc2nnc(-c3ccccn3)n2C)cc1		inactive: -0.468%
CCOC(=O)c1ccc(N/C(=N\S(=O)(=O)c2ccc(F)cc2F)c2ccccc2)cc1		inactive: -3.1%
COC(=O)[C@H](C)[C@@H]1C[C@@]1(C)[C@@H](NC(=O)OCc1ccccc1)c1ccccc1		inactive: -4.11% and inactive: -4.25%
CCc1c(C)nc(SC(C(=O)O)c2ccccc2)c(C#N)c1C (stereo unspecified)		inactive: -0.971%
Cc1cc(-c2n[nH]c(=S)n2/N=C/c2cccc([N+](=O)[O-])c2)n[nH]1	inconclusive [inhibitor, partial curve, poor fit]	
C=CCn1c(=O)c2ccccc2n2c(SC(C)C(=O)Nc3nc(-c4ccccc4)cs3)nnc12 (stereo unspecified)	inconclusive [inhibitor, single point]	
CCOC(=O)c1csc(NC(=O)c2ccc(S(=O)(=O)N3CCCC3)cc2)n1	inconclusive [inhibitor, partial curve]	
COC(Cc1n[nH]c(=S)n1-c1ccc(Cl)cc1)OC	inconclusive [inhibitor, single point]	
CC(C)(C)c1ccc(-c2c(C#N)c(N)nc3c2CCCC3)s1	inconclusive [inhibitor, partial curve]	
Cc1ccc2[nH]c3c(=O)n(Cc4ccccn4)cnc3c2c1	inconclusive [inhibitor, partial curve]	
C=C(C)CSC1=C(C#N)C(c2ccccc2Cl)CC(=O)N1 (stereo unspecified)	inconclusive [inhibitor, partial curve]	

Compound	Potency	activity change, negative = inhibition
Cc1cc(=O)oc2cc(OC(=O)CCCCCN3C(=O)c4ccccc4C3=O)ccc12	inconclusive [inhibitor, partial curve]	
COc1ccc(/C=C/c2ccncc2)cc1	inconclusive [inhibitor, partial curve]	
COC(=O)c1c(NC(=O)CN2CCCc3ccccc32)sc(C)c1C		inactive: -12.1%
O=C(N/N=C/C=C/c1ccccc1[N+](=O)[O-])c1cc(-c2ccccc2)n[nH]1	active: 25.1 µM	
CCOC(=O)COc1ccccc1C1Nc2ccccc2C(=O)N1c1cccc(Cl)c1 (stereo unspecified)	inconclusive [inhibitor, partial curve]	
CN(C)c1ccc(C2NCC(CCl)O2)cc1 (stereo unspecified)		inactive: -4.71%
Cc1c(C(=O)N2CCCCC2)sc(NC(=O)C(C)C)c1C#N	active: 12.6 µM	
COc1ccc(N(CC(=O)Nc2ccc3c(c2)OCO3)S(=O)(=O)c2ccccc2)c(OC)c1	inconclusive [inhibitor, partial curve]	
COC(=O)c1ccc(C(=O)OC)c(NC(=O)COC(=O)c2ccccc2OC)c1	inconclusive [inhibitor, partial curve]	
CCOc1cc(S(=O)(=O)NCc2ccc3c(c2)OCO3)c(C)cc1C		inactive: -5.96%
O=C(CSc1ccc2nnc(-c3ccc(F)cc3)n2n1)NCC1CCCO1 (stereo unspecified)	inconclusive [inhibitor, partial curve]	
CC(C)c1ccc(NC(=O)C2CC(=O)N(C(C)C)C2)cc1 (stereo unspecified)		inactive: -1.51%
COC(=O)c1c(NC(=O)Cc2cccs2)sc2c1CCC(C)C2 (stereo unspecified)	active: 12.6 µM	
COc1ccc(OC)c(C2CC(=O)N3CN(c4ccc(C)c(Cl)c4)CSC3=C2C#N)c1 (stereo unspecified)	inconclusive [inhibitor, single point]	
CCOC(=O)c1nn(-c2ccc(Cl)cc2)c2nc(Nc3ccccc3)cc(=O)n12		inactive: -1.75%
CCOc1c2ccc(C(=O)NCc3ccc(C)cc3)cc2nn1CC	inconclusive [inhibitor, partial curve]	
CCN(C(=O)COC(=O)CNC(=O)c1ccc(C)c(C)c1)C1CCS(=O)(=O)C1 (stereo unspecified)		inactive: -12.1%
Cc1ccc(C(=O)CSC2=C(C#N)C(c3ccco3)C3=C(CCCC3=O)N2)cc1 (stereo unspecified)		inactive: -15.7%
O=C(O)CCC(=O)Nc1ccc(-c2nnc(-c3ccco3)o2)cc1	inconclusive [inhibitor, partial curve]	
CCCCc1cc(=O)oc2cc(OCc3nn[nH]n3)c(Cl)cc12	inconclusive [inhibitor, partial curve]	
Cc1sc(NC(=O)c2ccccc2)c(C(c2ccccn2)N2CCN(CCO)CC2)c1C (stereo unspecified)		inactive: -17.6%
CCOC(=O)c1c(NC(=O)c2ccoc2C)sc(C)c1C	inconclusive [inhibitor, partial curve]	
COc1ccc(OC)c(NC2=NC3(CCCCC3)N=C(N)N2)c1		inactive: -6.15%
